From ChEMBL document CHEMBL1201862, “PubChem BioAssay data set” (2004) come the findings set out here.

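48-hour exposure; five concentrations; linearly interpolated endpoints. Here, GI50 denotes the concentration required for 50% inhibition of growth.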 Activity calls are given as the source filed them. No stated cut-off is given here; in the data, active = GI50 up to about 1.1 µM and inactive = higher.

This test relates to NCI-H322M. In words: inhibition of tumour cell growth, NCI panel, 48 h.
For `O=c1c2ccccc2[nH]c(=S)n1-c1ccc(Br)cc1`, the GI50 was inactive: > 100 µM.
`N/C(=N\O)N/N=C/c1cc2c(cc1Cl)OCO2`: the GI50 was inactive: 28.7 µM.
The same measure for `COC(=O)C1=C(C(=O)OC)SC2(S1)C(C(=O)OC)=C(C(=O)OC)Sc1c2ssc1=O`: inactive: 10.8 µM; for `Nc1nc(O)c2nc3c(nc2n1)C(=O)N(c1ccc(C(=O)O)cc1)C3`: inactive: > 100 µM; for `CC1NOC(=O)C1/N=N/c1ccccc1Br` (stereo not given): inactive: 55.2 µM.
On to `Cc1cc(N(CCC#N)S(=O)(=O)c2ccccc2)ccc1/C=C1N=C(/C=C/c2ccccc2)OC\1=O`, for which the GI50 is inactive: > 100 µM.
As for `CC(C)OC(=O)[C@@H]1OC(C)(C)O[C@H]1C(=O)OC(C)C`, the GI50 is inactive: > 100 µM.
The value for `CCCCCC1CC=CC(NC(=O)OCc2ccccc2)C1/C=C/CCCC1OCCO1` (stereo not given) was inactive: > 100 µM; that for `CCN(CC)c1cc2c3c(c1)CCCN3CCC2` was inactive: > 10 µM; that for `Sc1nnc(C(c2ccccc2)c2ccccc2)[nH]1` was inactive: > 100 µM.
Take `BrC12C3C4C5C(C(C43)C13OCCO3)C52` (stereo not given): the GI50 is inactive: > 100 µM.
The value for `COc1ccc2nc(C)cc(NCCCCCCCCCNc3cc(C)nc4ccc(OC)cc34)c2c1` was inactive: 2.13 µM.
`CC12CC(C/C1=N/O)C(C)(C)C2` (stereo not given): the GI50 is inactive: > 100 µM.
`NCCSCC(N)C(=O)O` (stereo not given): the GI50 was inactive: 31.1 µM.
As to `CC(C)C(=S)N(C)O`, the GI50 was inactive: 38.5 µM.
The value for `CSc1[nH]cnc1C(N)=S` was inactive: > 100 µM; that for `C=CCC1(OCc2ccccc2)C(=O)C(=O)OC1C1COC(C)(C)O1` (stereo not given) was inactive: > 100 µM; that for `Clc1ccc(CCN(CCc2ccc(Cl)c(Cl)c2)CCN2CCCC2)cc1Cl` was inactive: 2.36 µM.
The value for `CC(=O)c1ccc(NC(=O)/C(CC(=O)c2sc(-c3cccnc3)nc2C)=N/NC(N)=O)cc1` was inactive: > 100 µM.
Turning to `COc1cc2oc(-c3ccc4c(c3)OCO4)c(OC)c(=O)c2c(OC)c1O`, the GI50 is inactive: > 100 µM.
The value for `O=C(Cn1c2c(c3ccccc31)CCCC2)N1CCOCC1` was inactive: > 100 µM; that for `COc1ccc(O)c(C#N)c1C#N.COc1ccc(OC)c(C#N)c1C#N` was inactive: > 100 µM; that for `CC(=O)c1c2c(cc3c1CC1(C3)Cc3ccc4c(c3C1=O)CCC4)CCC2` (stereo not given) was inactive: > 100 µM.
The value for `CN1c2ccccc2C2=C(c3ccccc3)CC[C@@H](C(=O)N3C4CC5CC[C@@]4(CS3(=O)=O)C5(C)C)[C@@H]21` (stereo not given in full) was inactive: > 100 µM.
Take `O=C1CCC2(c3ccc(F)cc3)Nc3ncccc3N12` (stereo not given): the GI50 was inactive: > 100 µM.
The value for `COc1ccc(OC)c(/C(C)=N/NC(N)=S)c1` was inactive: > 100 µM; that for `O=c1c2sc3nc(NCCN4CCCCC4)ncc3c2ncn1-c1ccccc1` was inactive: 40.7 µM; that for `COC(=O)Cc1c(C2=Nc3ccccc3C2(O)CC(=O)OC)[nH]c2ccccc12` (stereo not given) was inactive: 50 µM.
The value for `O=C(N[C@@H](c1ccccc1)[C@@H](O)C(=O)OCc1ccc([N+](=O)[O-])cc1)c1ccccc1` was inactive: > 100 µM; that for `COc1ccc2c(=O)c3cc([N+](=O)[O-])ccc3n(C)c2c1` was inactive: > 100 µM; that for `CSC(=N\c1ccccc1)/N=C(\SCc1ccccc1)N(C)C` was inactive: 1.85 µM.
The same measure for `COc1ccc(-c2nc(SCC(=O)N/N=C/c3ccc([N+](=O)[O-])cc3)[nH]c2-c2ccc(OC)cc2)cc1`: inactive: 11.2 µM; for `COc1cc(OCCN(C)C)c2[nH]c(C(=O)N3CC(CCl)c4c3cc(N)c3ccccc43)cc2c1` (stereo not given): active: < 0.01 µM.
Take `O=c1c(Cl)nsnc1Cl`: the GI50 is inactive: 18.5 µM.
The same measure for `Cc1cn(C2CC(N)C(C(=O)NCC(=O)O)O2)c(=O)[nH]c1=O` (stereo not given): inactive: > 100 µM.
As to `N#Cc1ccc(Sc2nc3ccccc3[nH]2)cc1`, the GI50 was inactive: > 100 µM.
With `O=C(NCCCl)NCc1ccccc1`, the GI50 is inactive: > 100 µM.
The same measure for `O=NN(Cc1ccc(Cl)cc1)C(C(=O)O)c1ccccc1` (stereo not given): inactive: > 100 µM; for `N#CNc1nc(N)c(-c2ccc(Cl)cc2)c(C(=O)Nc2nccs2)n1`: inactive: > 100 µM; for `O=[N+]([O-])c1ccc(SN=S=NSc2cccc(SN=S=NSc3ccc([N+](=O)[O-])cc3)c2)cc1`: inactive: 94.4 µM.
`O=c1[nH]c2c(nc1NC13CC4CC(CC(C4)C1)C3)c(=O)oc1ccccc12`: the GI50 was inactive: 92.5 µM.
For `CCOC(=O)c1c(SCC#N)n(-c2ccccc2)c(=S)n(-c2ccccc2)c1=O`, the GI50 is inactive: > 100 µM.
On to `O=C1NC(Cc2ccccc2)C(=O)N2CCCC12` (stereo not given), for which the GI50 is inactive: > 100 µM.
The value for `Cc1ccc(/C(=C/C=C(C#N)C#N)Sc2cc(Cl)ccc2Cl)cc1` was inactive: 17.4 µM; that for `Cc1ccc(C)c(NC(=O)c2cc(-c3ccc([N+](=O)[O-])cc3)nc(N)n2)c1` was inactive: > 100 µM; that for `CCOc1cc2c(cc1O)CC[C@@H]1[C@@H]2CC[C@]2(C)C(N)CC[C@@H]12` (stereo not given in full) was inactive: 3.93 µM.
The value for `N#CC1C=Cc2ccccc2N1C(=O)Oc1ccccc1` (stereo not given) was inactive: 49 µM; that for `Cc1ccc(C2(c3ccc(Cl)cc3)c3ccccc3C3=NCCN32)cc1` (stereo not given) was inactive: 8.87 µM; that for `CCOC(=O)c1nc2ccc(C(F)(F)F)cc2nc1Nc1ccc(Cl)c(Cl)c1` was inactive: > 100 µM.
Take `Nc1ccc2c(c1)C(=O)c1ccc(F)cc1-2`: the GI50 was inactive: > 100 µM.
Turning to `O=C1C(=O)N(C23CC4CC(CC(C4)C2)C3)C(=S)N1c1ccccc1`, the GI50 was inactive: > 100 µM.
The value for `CCN(CC)c1oc(N(CC)CC)c(C(=O)Nc2ccccn2)c(=O)c1C(C)=O` was inactive: > 100 µM.
The same measure for `CCOC(=O)C1=C(c2ccccc2)C12N(Cc1ccccc1)C(=O)C2(c1ccccc1)c1ccccc1` (stereo not given): inactive: > 100 µM; for `COC1(OC)CCCc2c1no[n+]2[O-]`: inactive: > 100 µM; for `CCOC(=O)C(C(N)=O)C1=Nc2cc([N+](=O)[O-])ccc2N/C1=C\C(=O)c1ccccc1` (stereo not given): inactive: 22.2 µM.
With `O=C(Nc1cccc([N+](=O)[O-])c1)c1nnn(-c2cccc([N+](=O)[O-])c2)c1O`, the GI50 was inactive: > 100 µM.
The same measure for `Nc1ccn(C=C=CCO)c(=O)n1`: inactive: > 100 µM.
The same measure for `Cc1ccc2[nH]c(Sc3c([N+](=O)[O-])ncn3C)nc2c1`: inactive: 28.4 µM; for `O=C1c2ccc3c4ccc5c6c(ccc(c7ccc(c2c37)C(=O)N1CCN1CCCCC1)c64)C(=O)N(CCN1CCCCC1)C5=O`: inactive: > 100 µM.
The same measure for `COc1ccc(-c2oc3cc(OC(C)=O)cc(OC(C)=O)c3c(=O)c2OC)cc1`: inactive: 25.4 µM.
